Source: the supplement of paper PMC8748497
The other results are listed elsewhere or left out.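 How the source made its calls: active = GRHL reporter fold change of at least 2 over DMSO at 10 µM; inactive = below 2-fold.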 Most values come without repeats; read them as rough.

System: HEK293 GRHL-luciferase reporter
Assay: GRHL luciferase reporter activity, fold change over DMSO control; higher = stronger GRHL reporter activation
Details: 10 µM; 24 h
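Further: stable HEK293 line carrying repeated GRHL consensus sites upstream of a minimal promoter driving luciferase, luminescence read 24 h post-treatment, normalized to 0.5% DMSO vehicle wells.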

SMILES	GRHL luciferase reporter activity
c1ccc(CN(CC2=NCCN2)c2ccccc2)cc1	inactive: 0.941
C[C@]12C=CC(=O)C=C1CC[C@@H]1[C@@H]2[C@@H](O)C[C@@]2(C)[C@H]1CC[C@]2(O)C(=O)COP(=O)(O)O	inactive: 1.33
COc1ccc(C(C)=O)c(OC)c1	inactive: 1.13
COc1ccc2oc(-c3ccccc3)c(OC)c(=O)c2c1	active: 3.35
CC(=O)N(CC(O)CO)c1c(I)c(C(=O)NCCO)c(I)c(C(=O)NCC(O)CO)c1I (stereo not drawn)	inactive: 0.898
CCN(CC)CCc1nc(-c2ccccc2)no1	inactive: 0.021
COc1ccc(CCC(=O)c2c(O)cc(O[C@@H]3O[C@H](CO)[C@@H](O)[C@H](O)[C@H]3O[C@@H]3O[C@@H](C)[C@H](O)[C@@H](O)[C@H]3O)cc2O)cc1O	inactive: 1.06
CC(=O)Nc1cc2ccccc2oc1=O	inactive: 0.995
CC[C@H]1OC(=O)[C@H](C)[C@@H](O[C@H]2C[C@@](C)(OC)[C@@H](O)[C@H](C)O2)[C@H](C)[C@@H](O[C@@H]2O[C@H](C)C[C@H](N(C)C)[C@H]2O)[C@](C)(O)C[C@@H](C)CN(C)[C@H](C)[C@@H](O)[C@]1(C)O	inactive: 0.927
COc1c(-c2coc3cc4c(cc3c2=O)CC(OC(C)=O)C(C)(C)O4)ccc2c1C=CC(C)(C)O2 (stereo not drawn)	active: 6.94
COc1ccc(-c2cc(=O)c3cc(OC)ccc3o2)cc1	inactive: 1.14
O=C(CCCN1CCC(O)(c2ccc(Br)cc2)CC1)c1ccc(F)cc1	inactive: 0.871
Cc1nccnc1N1CCCCC1	inactive: 1.09
